Among the data in the supplement of paper PMC8813932 are log2 surviving fraction values, retold here.

Structures can show the parent of a compound that is named as a salt. Some of the results follow. Many values rest on one well or one pass, so single values are uncertain.

This assay deals with Ov4Carbo. The assay can be described thus: log2 surviving fraction relative to plate median (drug vs vehicle, or drug+dl922-947 vs dl922-947 alone); ovarian cancer lines: OVCAR4 is platinum-sensitive while Ov4Cis resists cisplatin and Ov4Carbo carboplatin; higher = more cell survival. Conditions: dl922-947 oncolytic adenovirus co-treatment: MOI 10; compound concentration: 10 uM; 192 h.
Regarding `CC1CNc2c(cccc2S(=O)(=O)N[C@@H](CCCNC(=N)N)C(=O)N2CC[C@@H](C)C[C@@H]2C(=O)O)C1` (stereo partly specified) [Argatroban], the log2 surviving fraction was -0.741.

Regarding `O=c1c(-c2ccc(O)cc2)coc2cc(O)ccc12` [Daidzein], the log2 surviving fraction is -0.284.

On to `COc1cc2nc(N3CCN(C(=O)C4CCCO4)CC3)nc(N)c2cc1OC` (stereo unspecified) [Terazosin HCl (Hytrin)], for which the log2 surviving fraction was -0.659.

Consider `O=C(O)CCc1nc(-c2ccccc2)c(-c2ccccc2)o1` [Oxaprozin], for which the log2 surviving fraction was found to be 0.63.

Turning to `CCC[C@H](NC(=O)[C@@H]1[C@H]2CCC[C@H]2CN1C(=O)[C@@H](NC(=O)[C@@H](NC(=O)c1cnccn1)C1CCCCC1)C(C)(C)C)C(=O)C(=O)NC1CC1` [Telaprevir (VX-950)], the log2 surviving fraction is -0.723.

Take `COC(=O)C1=C(C)NC(C)=C(C(=O)OC)C1c1ccccc1[N+](=O)[O-]` [Nifedipine (Adalat)]: the log2 surviving fraction was -0.516.

For the compound `COc1ccc2c(c1)C(=O)N(CCc1ccc(S(=O)(=O)NC(=O)NC3CCCCC3)cc1)C(=O)C2(C)C` [Gliquidone], the log2 surviving fraction stood at 0.137.

As to `OC(Cn1cncn1)(Cn1cncn1)c1ccc(F)cc1F` [Fluconazole], the log2 surviving fraction worked out at 0.0658.

In the case of `C[C@@H](O)[C@H]1C(=O)N2C(C(=O)O)=C(S[C@@H]3CN[C@H](CNS(N)(=O)=O)C3)[C@H](C)[C@H]12` [Doripenem Hydrate], the log2 surviving fraction came out at 0.117.

In the case of `CN1[C@@H]2C[C@@H](OC(=O)[C@H](CO)c3ccccc3)C[C@H]1[C@@H]1O[C@@H]12` [Scopolamine hydrobromide], the log2 surviving fraction is -0.251.

Take `CCCCCCOC(=O)NC(=N)c1ccc(NCc2nc3cc(C(=O)N(CCC(=O)OCC)c4ccccn4)ccc3n2C)cc1` [BIBR-1048 (Dabigatran)]: the log2 surviving fraction is -5.14.
